Results published in paper PMC10529913 (2023).

Biological target: unmodified histone H4 peptide (UniProt P59259)
Assay: MST

B1: His-TEV-DDM1(Δ[…]) (domain or fragment)
chain: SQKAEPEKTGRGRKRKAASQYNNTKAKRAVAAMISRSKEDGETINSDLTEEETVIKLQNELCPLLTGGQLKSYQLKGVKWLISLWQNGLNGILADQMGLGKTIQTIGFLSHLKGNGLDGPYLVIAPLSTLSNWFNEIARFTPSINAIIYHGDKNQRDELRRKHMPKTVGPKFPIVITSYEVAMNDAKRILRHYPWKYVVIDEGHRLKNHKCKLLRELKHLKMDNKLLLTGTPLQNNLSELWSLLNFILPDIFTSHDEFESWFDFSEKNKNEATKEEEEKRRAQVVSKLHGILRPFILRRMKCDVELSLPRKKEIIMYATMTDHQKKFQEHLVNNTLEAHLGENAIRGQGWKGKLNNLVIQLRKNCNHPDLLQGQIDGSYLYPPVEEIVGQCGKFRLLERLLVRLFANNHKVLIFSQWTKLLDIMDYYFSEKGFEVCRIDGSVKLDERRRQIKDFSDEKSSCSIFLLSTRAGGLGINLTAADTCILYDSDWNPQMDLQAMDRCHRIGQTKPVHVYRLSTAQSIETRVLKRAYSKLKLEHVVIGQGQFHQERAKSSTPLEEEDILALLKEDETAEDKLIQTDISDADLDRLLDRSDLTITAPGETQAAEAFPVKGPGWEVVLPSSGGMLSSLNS
modifications: labelled with His-label RED-tris-NTA
Kd: 34 µM
